Source: publication PMC12040169 (PLOS Biology, 2025)
The other results are listed elsewhere or left out.

tested on: T1, C. trachomatis L2/434/Bu expressing GFP (CTL2-GFP); parameters: species or system HeLa; C. trachomatis total inclusion area by high-content imaging, normalised to DMSO; details: total inclusion area; 28.5 h, 10 µM; inhibitor
T1 construct: L2/434/Bu GFP intracellular growth in HeLa cells
Summary of the method: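 High-content imaging followed the bulk GFP/resorufin measurement: fixed, Hoechst-stained cells were scored for GFP inclusions and host nuclei per well. Total inclusion area and count served as growth proxies, nuclei number as the viability proxy. MIC calculation matched the bulk assay.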

SMILES | % of control remaining
CCOCCCNc1nc2c(c(=O)[nH]c(=O)n2C)n1CCC(C)C [CBK287968] | 127.884
COc1ccc(Nc2ccc(-c3ccc4ccccc4c3)cn2)cn1 [CBK037744] | 86.0211
NC(=O)CN1CCC(Oc2nccnc2OCC2COc3ccccc3O2)CC1 (stereo not shown) [CBK082987T] | 106.151
Cn1c(=O)c2c(nc(NCCO)n2CCc2ccccc2)n(C)c1=O [CBK267497] | 97.8977
COc1ccc(-c2cc(C(=O)N3CCN(C(C)=O)CC3)cnc2-c2ccc(Cl)cc2)cc1 [CBK037577] | 91.6474
COc1cccc(C(=O)Oc2ccc3c(=O)c(-c4nc5ccccc5s4)c(C)oc3c2)c1 [CBK265540] | 94.5598
CC(=O)Nc1c(C)ccc(S(=O)(=O)N2CCOCC2)c1C [CBK034327] | 54.3504
Nc1nn2c(-c3cccc(Cl)c3)nnc2s1 [CBK288122] | 79.9389
COc1ccc(-c2noc([C@@H]3Cc4[nH]cnc4CN3C(=O)Nc3ccc(C)cc3)n2)cc1 [CBK288968] | 89.9769
O=C1CSC2(C(=O)Nc3ccc(Br)cc32)N1c1cccc([N+](=O)[O-])c1 (stereo not shown) [CBK093451] | 93.4479
O=C(Cc1c[nH]cn1)N1CCN(c2ncccn2)CC1 [CBK144527] | 90.9957
COc1cc(CN2CCN(Cc3ccncc3)CC2)cc(OC)c1O [CBK263401] | 104.224
O=C(Nc1ccc(N2CCNCC2)nc1)C1(c2ccccc2)CCCCC1 [CBK028269T] | 120.018
Cc1ccc2nsnc2c1NC(=O)COc1ccccc1F [CBK269420] | 50.7542
N/C(Cc1ccc(Cl)cc1Cl)=N\OC(=O)c1cccc([N+](=O)[O-])c1 [CBK264317] | 100.513
c1ccc(CCN2CCC(n3cnc4cccnc43)CC2)cc1 [CBK283581] | 88.9219
CCC(CO)Nc1cncc(-c2cccc(/C=C/C(=O)O)c2)n1 (stereo not shown) [CBK065569] | 95.0077
Cc1ccc(-c2nccnc2OC2CCCCC2)c(C)c1 [CBK106983] | 89.5135
CCN(Cc1ccccc1)C(=O)NCCCSC [CBK155214] | 109.525
Cc1csc2c(N3CCC(OCCN4CCCC4)CC3)ncnc12 [CBK304095] | 62.3336
CC(=O)Nc1ccc(-c2cncc(N(CCO)CCO)n2)cc1 [CBK065789] | 134.803
COc1cccc(CCNCC(O)COc2ncnc3ccccc23)c1 (stereo not shown) [CBK028127T] | 103.423
CCN(CC)CCN1CCN(c2cc(-c3cccnc3)ncn2)CC1 [CBK036957] | 60.6285
O=C(NCCc1c[nH]c2ccc(Cl)cc12)c1ccc(Cl)cc1Br [CBK159755] | 27.044
O=C(NC(c1ccc(-c2ccccc2)cc1)c1cnccn1)C1CCN(CCCN2C(=O)C3CCCCC3C2=O)CC1 (stereo not shown) [CBK147856] | 84.7539
CC1=C(C(=O)Nc2ccccc2)C(c2ccccc2)C(C#N)=C(SCc2ccncc2)N1 (stereo not shown) [CBK267448] | 100.882

SMILES | % of control remaining
O=C(Nc1cccc(Cl)c1Cl)c1cnccn1 [CBK288243] | 70.9411
Cc1cc(C)c2c(n1)oc1c(Cl)ncnc12 [CBK008822] | 54.4015
CCn1c(SCC(N)=O)nnc1C(C)Oc1ccc(C)c(C)c1 (stereo not shown) [CBK270289] | 92.5718
CCN1CC2(CCCN(Cc3cncn3C3CCCCC3)C2)CCC1=O (stereo not shown) [CBK307223] | 66.7826
Nc1nnc(C(F)(F)F)o1 [CBK023457] | 59.8956
O=C(COc1ccccc1)N1CCN(Cc2ccccn2)CC1 [CBK073265G] | 103.699
COc1ccc([C@@]23CCN(C(=O)Nc4ccc(F)c(F)c4F)C[C@@H]2CN(C)C3)cc1OC [CBK074305T] | 67.0639
COC(=O)c1ccc(N2CCN(Cc3cnoc3C)C(C)C2)cc1 (stereo not shown) [CBK306442] | 51.8715
COCCN1C(=O)C2(CC(=O)N(CCOc3ccccc3)C2=O)c2ccccc21 (stereo not shown) [CBK075322] | 90.8154
Cc1ccc(S(=O)(=O)NCCN2CCN(S(=O)(=O)c3ccc(C)cc3)CC2)cc1 [CBK265461] | 119.902
Cc1ccc(N2CCCn3c2nc2c3c(=O)n(CC(=O)O)c(=O)n2C)cc1 [CBK286740] | 68.9567
COC(=O)Cc1ccc(NC(=S)N2CCC(C(N)=O)(N3CCCCC3)CC2)cc1 [CBK266101] | 87.153
CCOC(=O)c1sc(NS(=O)(=O)c2ccc(Cl)c(Cl)c2)nc1C [CBK077228] | 89.8726
COc1ccc2nc(NC(=O)c3cnc(-c4ccc(Cl)cc4)c(-c4cccnc4)c3)sc2c1 [CBK037576] | 140.737
CCc1nnc(NC(=O)CCc2ccccc2)s1 [CBK057943] | 78.1561
COc1cc(Cl)cc(C2NC(=S)NC(c3ccccc3)=C2C(C)=O)c1OCC(=O)O (stereo not shown) [CBK268801] | 117.707
N#Cc1ccccc1NC(=O)CSc1cnn[nH]1 [CBK269795] | 100.354
O=C(CSc1nn2cnnc2s1)Nc1ccc(I)cc1 [CBK268913] | 75.6719
CC(C)CN1CCC(C(=O)NC(c2ccc(Cl)cc2)c2cnccn2)CC1 (stereo not shown) [CBK148026] | 100.139
CC(C)(O)C1(C)OC(NC2C3CC4CC(C3)CC2C4)=NC1=O (stereo not shown) [CBK126370] | 86.3282
O=C(Nc1nc(-c2ccncc2)cs1)c1sc2ccccc2c1Cl [CBK287562] | 113.812
COCC1(C(=O)N2CC(=O)N(c3ccccc3C#N)CC2C)CCC1 (stereo not shown) [CBK307159] | 60.0253
CC(Oc1ccccc1F)C(=O)N1CCCCC1CN(C)C (stereo not shown) [CBK281544] | 89.7135
CC(=O)NC1CCN(c2nc(C(C)(C)C)nc3c2cnn3C)CC1 [CBK307431] | 87.0867
O=C(N[C@@H]1CNCCC[C@H]1O)c1ccc(OCCN2CCOCC2)cc1 [CBK289065] | 96.6219
CC1=CC(C)C2C(=O)N(c3ccc(C(=O)O)cc3)C(=O)C2C1 (stereo not shown) [CBK286923] | 88.0242
